# Some of the results follow.
# What was measured:
# Assay in all cases: glycan array binding signal (z-score within array); higher = stronger binding
# Conditions in all cases: glycan notation: IUPAC condensed, linker removed
# [1] = target: Fuc(a1-2)[Gal(a1-3)]Gal(b1-4)GlcNAc(b1-2)Man(a1-3)[Fuc(a1-2)[Gal(a1-3)]Gal(b1-4)GlcNAc(b1-2)Man(a1-6)]Man(b1-4)GlcNAc(b1-4)[Fuc(a1-6)]GlcNAc
# In short: (§1)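 Arrays were curated from the Consortium for Functional Glycomics database, 3228 in total, and kept only where the protein sequence was available. Binding is expressed as a within-array Z-score. This score was averaged across arrays of the same protein sequence at different concentrations or buffers and across linkers, and negative values can be read as non-binding.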
# [2] = target: Fuc(a1-2)[Gal(a1-3)]Gal(b1-4)GlcNAc(b1-3)GalNAc
# In short: as §1
# [3] = target: Fuc(a1-2)[Gal(a1-3)]Gal(b1-4)GlcNAc(b1-3)[Fuc(a1-2)[Gal(a1-3)]Gal(b1-4)GlcNAc(b1-6)]GalNAc
# In short: as §1
# [4] = target: Fuc(a1-2)[Gal(a1-3)]Gal(b1-4)GlcNAc(b1-6)GalNAc
# In short: as §1
# [5] = target: Fuc(a1-2)[Gal(a1-3)]Gal(b1-4)[Fuc(a1-3)]Glc
# In short: as §1
# [6] = target: Fuc(a1-2)[Gal(a1-3)]Gal(b1-4)[Fuc(a1-3)]GlcNAc
# In short: as §1
# [7] = target: Fuc(a1-2)[Gal(a1-3)]Gal(b1-4)[Fuc(a1-3)]GlcNAc(b1-3)GalNAc
# In short: as §1
# [8] = target: Fuc(a1-2)[Gal(a1-4)]Gal(b1-4)GlcNAc
# In short: as §1
# [9] = target: Fuc(a1-2)[GalNAc(a1-3)]Gal
# In short: as §1
# [10] = target: Fuc(a1-2)[GalNAc(a1-3)]Gal(b1-3)GalNAc(a1-3)[Fuc(a1-2)]Gal(b1-4)GlcNAc
# In short: as §1
# [11] = target: Fuc(a1-2)[GalNAc(a1-3)]Gal(b1-3)GalNAc(b1-3)Gal(a1-4)Gal(b1-4)Glc
# In short: as §1
# [12] = target: Fuc(a1-2)[GalNAc(a1-3)]Gal(b1-3)GlcNAc
# In short: as §1
# [13] = target: Fuc(a1-2)[GalNAc(a1-3)]Gal(b1-3)GlcNAc(b1-2)Man(a1-3)[Fuc(a1-2)[GalNAc(a1-3)]Gal(b1-3)GlcNAc(b1-2)Man(a1-6)]Man(b1-4)GlcNAc(b1-4)GlcNAc
# In short: as §1
# [14] = target: Fuc(a1-2)[GalNAc(a1-3)]Gal(b1-3)GlcNAc(b1-2)Man(a1-3)[Fuc(a1-2)[GalNAc(a1-3)]Gal(b1-3)GlcNAc(b1-2)Man(a1-6)]Man(b1-4)GlcNAc(b1-4)[Fuc(a1-6)]GlcNAc
# In short: as §1
# [15] = target: Fuc(a1-2)[GalNAc(a1-3)]Gal(b1-3)GlcNAc(b1-3)GalNAc
# In short: as §1
# [16] = target: Fuc(a1-2)[GalNAc(a1-3)]Gal(b1-3)GlcNAc(b1-6)GalNAc
# In short: as §1
# [17] = target: Fuc(a1-2)[GalNAc(a1-3)]Gal(b1-4)Glc
# In short: as §1
# [18] = target: Fuc(a1-2)[GalNAc(a1-3)]Gal(b1-4)GlcNAc
# In short: as §1
# [19] = target: Fuc(a1-2)[GalNAc(a1-3)]Gal(b1-4)GlcNAc(b1-2)Man
# In short: as §1
# [20] = target: Fuc(a1-2)[GalNAc(a1-3)]Gal(b1-4)GlcNAc(b1-2)Man(a1-3)[Fuc(a1-2)[GalNAc(a1-3)]Gal(b1-4)GlcNAc(b1-2)Man(a1-6)]Man(b1-4)GlcNAc(b1-4)GlcNAc
# In short: as §1
# [21] = target: Fuc(a1-2)[GalNAc(a1-3)]Gal(b1-4)GlcNAc(b1-2)Man(a1-3)[Fuc(a1-2)[GalNAc(a1-3)]Gal(b1-4)GlcNAc(b1-2)Man(a1-6)]Man(b1-4)GlcNAc(b1-4)[Fuc(a1-6)]GlcNAc
# In short: as §1
# [22] = target: Fuc(a1-2)[GalNAc(a1-3)]Gal(b1-4)GlcNAc(b1-3)Gal(b1-4)GlcNAc
# In short: as §1
# [23] = target: Fuc(a1-2)[GalNAc(a1-3)]Gal(b1-4)GlcNAc(b1-3)Gal(b1-4)GlcNAc(b1-3)Gal(b1-4)GlcNAc
# In short: as §1
# [24] = target: Fuc(a1-2)[GalNAc(a1-3)]Gal(b1-4)GlcNAc(b1-3)GalNAc
# In short: as §1
# [25] = target: Fuc(a1-2)[GalNAc(a1-3)]Gal(b1-4)GlcNAc(b1-3)[Fuc(a1-2)[GalNAc(a1-3)]Gal(b1-4)GlcNAc(b1-6)]GalNAc
# In short: as §1
# [26] = target: Fuc(a1-2)[GalNAc(a1-3)]Gal(b1-4)GlcNAc(b1-6)GalNAc
# In short: as §1
# [27] = target: Fuc(a1-2)[GalNAc(a1-3)]Gal(b1-4)[Fuc(a1-3)]GlcNAc
# In short: as §1
# [28] = target: Fuc(a1-2)[GalNAc(a1-3)]Gal(b1-4)[Fuc(a1-3)]GlcNAc(b1-3)GalNAc
# In short: as §1
# [29] = target: Fuc(a1-2)[GalNAc(a1-4)]Gal(b1-4)GlcNAc
# In short: as §1
# [30] = target: Fuc(a1-2)[GalNAc(b1-3)]Gal
# In short: as §1
# Fuc(a1-3)GlcNAc = target: Fuc(a1-3)GlcNAc
# In short: as §1
# [31] = target: Fuc(a1-3)[Gal(b1-4)]Glc6S
# In short: as §1
# [32] = target: Fuc(a1-3)[Gal(b1-4)]GlcNAc
# In short: as §1
# [33] = target: Fuc(a1-3)[Gal(b1-4)]GlcNAc(b1-2)Man
# In short: as §1
# [34] = target: Fuc(a1-3)[Gal(b1-4)]GlcNAc(b1-2)Man(a1-3)[Fuc(a1-3)[Gal(b1-4)]GlcNAc(b1-2)Man(a1-6)]Man(b1-4)GlcNAc(b1-4)GlcNAc
# In short: as §1
# [35] = target: Fuc(a1-3)[Gal(b1-4)]GlcNAc(b1-2)Man(a1-3)[Fuc(a1-3)[Gal(b1-4)]GlcNAc(b1-2)Man(a1-6)]Man(b1-4)GlcNAc(b1-4)[Fuc(a1-6)]GlcNAc
# In short: as §1
# [36] = target: Fuc(a1-3)[Gal(b1-4)]GlcNAc(b1-3)Gal(b1-3)[Fuc(a1-4)]GlcNAc
# In short: as §1
binder,measurement,setting,value
LecRKVI.2 (protein) RTTTNFAFRGFNGNQSKIRIEGAAMIKPDGLLRLTDRKSNVTGTAFYHKPVRLLNRNSTNVTIRSFSTSFVFVIIPSSSSNKGFGFTFTLSPTPYRLNAGSAQYLGVFNKENNGDPRNHVFAVEFDTVQGSRDDNTDRIGNDIGLNYNSRTSDLQEPVVYYNNDDHNKKEDFQLESGNPIQALLEYDGATQMLNVTVYPARLGFKPTKPLISQHVPKLLEIVQEEMYVGFTASTGKGQSSAHYVMGWSFSSGGERPIADVLILSELPPPPPNKAKKEGLNS,glycan array binding signal (z-score),[1],-0.403
same,glycan array binding signal (z-score),[2],-0.375
same,glycan array binding signal (z-score),[3],1.79
same,glycan array binding signal (z-score),[4],-0.443
same,glycan array binding signal (z-score),[5],-0.393
same,glycan array binding signal (z-score),[6],-0.241
same,glycan array binding signal (z-score),[7],-0.276
same,glycan array binding signal (z-score),[8],-0.271
same,glycan array binding signal (z-score),[9],-0.335
same,glycan array binding signal (z-score),[10],-0.273
same,glycan array binding signal (z-score),[11],-0.183
same,glycan array binding signal (z-score),[12],-0.238
same,glycan array binding signal (z-score),[13],-0.337
same,glycan array binding signal (z-score),[14],-0.318
same,glycan array binding signal (z-score),[15],-0.129
same,glycan array binding signal (z-score),[16],-0.446
same,glycan array binding signal (z-score),[17],-0.344
same,glycan array binding signal (z-score),[18],-0.434
same,glycan array binding signal (z-score),[19],-0.48
same,glycan array binding signal (z-score),[20],4.57
same,glycan array binding signal (z-score),[21],-0.28
same,glycan array binding signal (z-score),[22],-0.304
same,glycan array binding signal (z-score),[23],-0.133
same,glycan array binding signal (z-score),[24],-0.467
same,glycan array binding signal (z-score),[25],-0.439
same,glycan array binding signal (z-score),[26],1.14
same,glycan array binding signal (z-score),[27],0.228
same,glycan array binding signal (z-score),[28],0.648
same,glycan array binding signal (z-score),[29],-0.15
same,glycan array binding signal (z-score),[30],-0.236
same,glycan array binding signal (z-score),Fuc(a1-3)GlcNAc,-0.379
same,glycan array binding signal (z-score),[31],-0.177
same,glycan array binding signal (z-score),[32],-0.358
same,glycan array binding signal (z-score),[33],-0.324
same,glycan array binding signal (z-score),[34],0.644
same,glycan array binding signal (z-score),[35],2.66
same,glycan array binding signal (z-score),[36],-0.43
